Test results published in ChEMBL document CHEMBL1157539, “Thousands of chemical starting points for antimalarial lead identification” (Nature, 2010).
Over roughly 13,000 compounds, “IFI” has its median near 4; the highest 2% begin near 17. The list shows a part of the results.

assay: GSK_TCMDC: Inhibition Frequency Index (IFI). The number of non-kinase HTS assays where a compound showed > 50 % inhibition, expressed as a percentage of the number of such assays in which the compound was tested (-0 is zero); format: functional

SMILES | IFI [%]
O=C(c1cncc(-c2ccccc2)c1)N(Cc1cncn1Cc1ccccc1F)CC1CC1 | 7.14
CCCN(CCCN(CCCN(CCC)C(C)C)c1cc(C)nc(Nc2ccc(Cl)cc2)n1)C(C)C | 8.76
OC(CNc1ccnc(Nc2ccc(Cl)cc2)n1)c1ccccc1C(F)(F)F (centres undefined) | 14.4
COc1ccc(O)c(Cc2cnc3nc(N)nc(N)c3c2C)c1 | 2.96
O=C(NCCCCN1CCC(O)(c2ccc3c(c2)OCO3)CC1)c1ccc(NC(=O)c2ccc(Cl)cc2)cc1 | 0.75
COc1cccc(CNC(=O)NC2CCN(c3ccnc(Nc4cc(OC)c(OC)c(OC)c4)n3)C2)c1 (centres undefined) | 6.45
O=C(Nc1ccc(-c2cccc(-c3nc4ccccc4[nH]3)c2)cc1)c1cnn2cccnc12 | 7.48
CC(C)C[C@@H](NC(=O)NC1CCC(CCN2C3CCC2CC(OC(=O)C(CO)c2ccccc2)C3)CC1)C(O)(c1ccccc1)c1ccccc1 (some centres undefined) | 12.8
O=C(Nc1cccc(-c2ccc(-c3nc4cc(F)ccc4[nH]3)cc2)c1)c1cccnc1 | 7.41
CCOc1cc(C(=O)NCC2CCN(CC3CCCCC3)CC2)ccc1-c1nc2cc(Cl)ccc2[nH]1 | 1.41
Cc1ccc(/C=C/C(=O)NCCCCCN2CCCN(C(=O)Nc3ccc(Cl)c(Cl)c3)CC2)cc1 | 8.65
O=C(Nc1ccc(Cl)cc1)Nc1ccc(-c2cccc(-c3nc4ccccc4[nH]3)c2)cc1 | 4.04
Cc1nn(-c2cccc(C(F)(F)F)c2)c2sc(C(=O)NC3CCN(C(C)C)CC3)cc12 | 10
COc1ccc(NC(=O)Nc2nc3ccccc3s2)cc1N1CCN(C)CC1 | 0.73
Oc1ccc2nc(NCCCc3ccccc3)nc(NCCc3ccccc3)c2c1 | 14.1
CN1CCC(COc2ccc(CN3CCC(NC(=O)c4cccc(Cl)c4)CC3)cc2)CC1 | 5.88
COc1cc(Cc2cnc(N)nc2N)cc(OCCCCCCN2C(=O)c3ccccc3C2=O)c1OC | 4.9
N#Cc1cccc(Nc2nccc(NCC(O)c3cccc(C(F)(F)F)c3)n2)c1 (centres undefined) | 10.4
O=C(Nc1ccccc1)N(Cc1ccccc1-c1cccc(CNCc2ccc3c(c2)OCO3)c1)C1CCN(Cc2ccccc2)CC1 | 8.09
CCN1CCC(N(Cc2ccc(-c3ccc(C(F)(F)F)cc3)cc2)C(=O)Cn2c(SCc3cccc(F)c3F)cc(=O)c3ccccc32)C1 (centres undefined) | 7.14
Cc1cc(O)c(C(C)C)cc1C1(c2cc(C(C)C)c(O)cc2C)OC(=O)c2ccccc21 | 6.47
O=C(OCc1ccccc1)N1CCc2c([nH]c3ccccc23)C1CCC(F)(F)F (centres undefined) | 2.88
O=C(NCCc1ccccc1)c1cc(-c2cccnc2)cnc1NCC1CC1 | 1.89

SMILES | IFI [%]
CCCc1cc(OCCCOc2ccccc2)ccc1OCCCON1C(=N)N=C(N)NC1(C)C | 21.1
CN(C)c1ccc(-c2csc(C(=O)NC3CCCCN(Cc4ccc(C(C)(C)C)cc4)C3)c2)cc1 (centres undefined) | 1.82
CC(C)CCCC(C)(C)NC[C@@H](O)[C@H](Cc1ccccc1)NC(=O)c1cccc(OCC2CC2)c1 | 18.6
CN1CCN(Cc2cccc(-c3ccc4c(Nc5ccc(Oc6ccccc6)cc5)ccnc4c3)c2)CC1 | 10.1
COc1c(I)cc(Cc2cnc(N)nc2N)cc1I | 7.3
Fc1ccc2[nH]c(-c3cccc(-c4ccc(CN5CCCCC5)cc4)c3)nc2c1 | 2.9
CCC(CO)NCC(O)Cn1c2ccc(Cl)cc2c2cc(Cl)ccc21 (centres undefined) | 5.22
Cc1c(NC(=O)COc2ccc(Cl)cc2C(=O)c2cc(F)cc(C(F)(F)F)c2)ccc2ncsc12 | 4.62
Cc1ccc2c(O)c([N+](=O)[O-])c(O)nc2c1 | 3.03
C[C@H](NC(=O)c1c(CN2CCC(N3CCCCC3=O)CC2)c(-c2cccs2)nc2ccccc12)C1CCCCC1 | 6.11
Cc1cccc2nc(-c3ccc(-c4cccc(CN5CCC(C(N)=O)CC5)c4)cc3)[nH]c12 | 0.98
O=C(NCCCCCN1CCCN(C(=O)Nc2ccc(Cl)c(C(F)(F)F)c2)CC1)C1CC1c1ccc(Cl)c(Cl)c1 (centres undefined) | 15.1
COc1ccc(C2CCN(CCCCNC(=O)c3ccc(NC(=O)c4ccc(Cl)cc4)cc3)CC2)cc1Cl | 2.75
COc1ccc2nccc([C@@H](O)CN3CCC(NCc4ccc5c(c4)NC(=O)CS5)CC3)c2n1 | 3.68
Cc1cccc(C)c1CNc1ccnc2cc(C#N)ccc12 | 1.75
N=C(N)CCN(Cc1ccccc1)c1ccc(Cl)cc1 | 2.16
COc1ccc(-c2cccc(NC(=O)c3ccc(C#N)cc3)c2)cc1CN1CCN(C)CC1 | 3.96
N=C(N)NC(=O)Nc1cc(F)c(Cl)c(Cl)c1 | 1.54
CCn1c(Sc2ccc(C#N)c([N+](=O)[O-])c2)nnc1-c1ccc(Cl)cc1 | 2.86
CCC(CO)NCC(O)Cn1c2ccc(Br)cc2c2cc(Br)ccc21 (centres undefined) | 8.21
CC(C)(C)c1ccc(CN2CCCCC(NC(=O)c3cc(-c4cccc(Cl)c4)cs3)C2)cc1 (centres undefined) | 1.82
COc1ccc(CCNCCCCCCNCCCc2ccc(Cl)cc2)cc1OC | 4.23
COc1ccc(N2CCN(CCCCNC(=O)c3ccc(NC(=O)c4ccc(Cl)cc4)cc3)CC2)c(C)c1 | 7.21

SMILES | IFI [%]
Cc1ccc(Nc2nc(-c3ccccn3)cs2)nc1 | 13.8
CC(C)Nc1cc(C(=O)N[C@@H](Cc2ccccc2)[C@H](O)CNC2CCOCC2)c(F)c(N2CCCCS2(=O)=O)c1 | 2.24
COc1cc(OC)cc(-c2nn(-c3ccc([N+](=O)[O-])cc3Cl)c(=S)n2CC2CCCO2)c1 (centres undefined) | 2.68
O=S(=O)(NCCN1CCCC1)c1ccc(-c2cccc(CNCc3ccccc3)c2)s1 | 6.09
CCNc1cc(C(=O)N[C@@H](Cc2ccco2)[C@H](O)CNC2CCCCC2)cc(N2CCCCS2(=O)=O)c1 | 0.74
Cc1ccc2c(NC(=O)Nc3ccc(N(C)C)cc3)cc(C)nc2c1 | 8.89
CN1CCN=C1c1ccc(NC(=O)Nc2ccc(C3=NCCN3C)cc2)cc1 | 1.42
CC(=O)CC(=O)N1CCN(c2ccccc2)CC1 | 0.74
O=C(Nc1ccccc1)c1cccc(Nc2nccc(Nc3ccc(Oc4ccccc4)cc3)n2)c1 | 1.48
N#Cc1ccc(N[C@@H](CC2CCCCC2)C(=O)NCc2cc(Cl)cc(Cl)c2)c2ccccc12 | 3.74
Cn1ccc2c3c(N)nc(N)nc3ccc21 | 2.16
O=C(Nc1ccc2oc(-c3ccc(Br)cc3)nc2c1)c1ccc([N+](=O)[O-])o1 | 0.72
Cc1cc(N[C@@H](CC(C)C)C(=O)Nc2ccccc2)nc(Nc2ccccc2)n1 | 9.3
CN(C)CC1CCCN1Cc1ccccc1-c1cnn(C)c(=O)c1Oc1cccc(C#N)c1 (centres undefined) | 0
Cc1cc([N+](=O)[O-])ccc1NC(=O)Nc1cccc(C(F)(F)F)c1 | 7.89
N#Cc1c(N)n(CCc2ccc(F)cc2)c2nc3ccccc3nc12 | 2.82
CC1CN(c2ncc(-c3ccc(CNC4Cc5ccccc5C4)cc3)cn2)CC(C)N1 (centres undefined) | 11.4
COc1cc(Nc2nccc(N3CCC(NC(=O)C(C)c4ccc(Cl)cc4)C3)n2)cc(OC)c1OC (centres undefined) | 4.62
O=C(CC1NC(=O)c2ccccc21)Nc1ccc(-c2cccc(-c3nc4cc(C(F)(F)F)ccc4[nH]3)c2)cc1 (centres undefined) | 5.5
COc1cc(CCN(C)Cc2ccc(OC)c(OC)c2)ccc1NC(=O)c1cccc2c(O)c3cccc(F)c3nc12 | 4.39
O=C(N[C@@H](Cc1ccccc1)C(=O)NC1CCCCC1)c1ccc(O)c(-c2cccc(C(F)(F)F)c2)c1 | 2.92
COc1cc(C2CCCCC2)c(OC)cc1CC1c2cc(O)c(Cl)cc2CCN1C (centres undefined) | 5.04
O=C(Nc1ccc(C(F)(F)F)cc1)c1ccc(S(=O)(=O)NC2CCN(CC3CCCCC3)CC2)cc1 | 2.41

SMILES | IFI [%]
Cc1nc2ccccn2c1C1(O)C(=O)Nc2c(Cl)cc(Cl)cc21 (centres undefined) | -0
CN(C)CCOc1cc(NC(=O)Nc2ccc(-c3ccncc3)c3ccccc23)ccc1I | 8.33
CC(C)CNCc1ccc(-c2cccc(CNc3ccc4ncccc4c3)c2)cc1 | 8.51
O=C(Nc1cccc(-c2ccc(-c3nc4cc(C(F)(F)F)ccc4[nH]3)cc2)c1)Nc1ccc(F)c(F)c1F | 9.8
COc1ccc2ncc(F)c(CCN3CC[C@@H](CNCc4cc5c(cn4)OCS5)C3)c2n1 | 2.86
CCCNCc1ccc(-c2ccc(CN(CCOC)C(=O)[C@H]3CCCO3)cc2)nc1 | 0.69
Cc1cc(=NN=Cc2ccc(Cl)cc2)c2cc(F)ccc2[nH]1 | 0.72
COc1ccc2nccc([C@@H](O)CNCCCN(C)CCOc3cc(F)cc(F)c3)c2c1 | 2.84
COc1cccc(CNC[C@@H](O)[C@H](Cc2ccccc2)NC(=O)c2cc(OC(C)C)cc(N3CCCCS3(=O)=O)c2)c1 | 5.93
Cc1cc(NC(=O)NCCN2CCC(NC(=O)c3ccc(Cl)cc3)CC2)c2ccccc2n1 | 0.85
CSCCCN1CCC(O)(c2ccc3oc(C(=O)Nc4ccc5sc(C)nc5c4)cc3c2)CC1 | 0
COc1ccccc1NC(=O)Nc1ccc(-c2ccc(-c3nc4cc(C(F)(F)F)ccc4[nH]3)cc2)cc1 | 3.03
CC1CN(Cc2cccc(-c3ccc(-c4nc5ccccc5[nH]4)cc3)c2)CC(C)O1 (centres undefined) | 1.41
COc1ccc(CN(C)CCCCc2ccc(NC(=O)COc3cccc4sc5ccccc5c(=O)c34)cc2)cc1OC | 6.67
CCOc1cc(CC)ccc1C1CCN(CCCCNC(=O)c2ccc(NC(=O)c3ccc(Cl)cc3)cc2)CC1 | 2.21
Cc1cc(CNC(=O)[C@H](CC2CCCCC2)Nc2ccc(C#N)c3ccccc23)c(C(F)(F)F)o1 | 2.8
CC(C)N1CCC(N(Cc2ccc(-c3ccc(C(F)(F)F)cc3)cc2)C(=O)Cn2c(CCc3cccc(F)c3F)nc(=O)c3cccnc32)CC1 | 16.1
FC(F)(F)c1cccc(Nc2nc(-n3ccnc3)nc(-n3ccnc3)n2)c1 | 0.7
O=C(Nc1ccc(OC2CCN(Cc3ccccc3)CC2)c(Cl)c1)c1ccsc1 | 1.67
O=C(N[C@@H](Cc1ccccc1)C(=O)NC1CCCCCC1)c1ccc(O)c(-c2ccc(Cl)c(Cl)c2)c1 | 1.48
